From PubChem BioAssay AID1240 (Sanford-Burnham Center for Chemical Genomics, 2008)
The campaign covered roughly 50,000 compounds. About 800 (1.6%) showed an effect of 50% or more. The list shows a part of the results.

Molecular target: Bcl-2-like protein 10 (Homo sapiens) (UniProt Q9HD36)
Assay: Phenotype converters, Bcl-B/TR3 peptide binding displacement, primary biochemical FP (AID 1240);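 further: 0% = Bcl-B with tracer peptide and DMSO and 100% = tracer peptide lacking Bcl-B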
Details: GST-Bcl-B / FITC-TR3 peptide fluorescence polarization; stronger effect = higher value; compound at 3.75 mg/L

Chain of UniProt Q9HD36 (Q9HD36 whole entry, looked up): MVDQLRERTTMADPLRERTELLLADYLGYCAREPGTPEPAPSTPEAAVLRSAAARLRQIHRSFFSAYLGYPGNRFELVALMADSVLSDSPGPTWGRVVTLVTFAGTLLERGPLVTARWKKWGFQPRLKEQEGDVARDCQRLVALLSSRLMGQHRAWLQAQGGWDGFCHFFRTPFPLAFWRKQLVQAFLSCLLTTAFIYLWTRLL

Row | SMILES | displacement [%]
1 | CCC(=O)c1ccc(N2CCN(C(C)=O)CC2)c(F)c1 | -19.7
2 | CC[n+]1ccc(C(O)P(=O)(c2ccccc2)c2ccccc2)cc1 (stereo unspecified) | -8
3 | Clc1ccc(-c2csc3nc4ccccc4n23)cc1 | 9
4 | O=C(NNC(=O)c1c(F)c(F)c(F)c(F)c1F)c1ccccc1 | 1.5
5 | O=C(c1cccc(I)c1)N1CCN(c2ccccn2)CC1 | 6.9
6 | COC(=O)c1c(NC(=O)c2cccnc2)sc(C)c1C | 0.7
7 | Cc1c(C)c2ccc(OCC(=O)c3ccc(-c4ccccc4)cc3)cc2oc1=O | 6.4
8 | CCCOC(=O)c1ccc(NC(=O)CC(C)C)cc1 | -7.1
9 | Cc1ccc(NC(=O)CCN2C(=O)S/C(=C\c3ccccc3)C2=O)cc1 | -8.5
10 | CCC(C(=O)Nc1ccc(C)cc1)c1ccccc1 (stereo unspecified) | -1
11 | CCCOC(=O)C1=C(C)NC2=C(C(=O)CC(C)(C)C2)C1c1ccc(O)c([N+](=O)[O-])c1 (stereo unspecified) | 2.9
12 | COc1ccc(N2C(=O)CC(Nc3ccc(N4CCCCC4)cc3)C2=O)cc1 (stereo unspecified) | 0.4
13 | COc1ccc(C(N)=O)cc1NC(=O)c1ccccc1C | -16.4
14 | CCn1c2ccccc2c2cc(CNCc3ccc(OC)cc3)ccc21 | 0.8
15 | Cc1ccc(OCC(=O)Nc2cccc(I)c2)c(Br)c1 | -6.5
16 | COc1ccc(S(=O)(=O)N2CCN(Cc3cccc(OC)c3OC)CC2)cc1 | 4.4
17 | CCOc1ccc(/C=C2/C(=O)NC(=O)N(c3ccc(C)cc3)C2=O)cc1 | -9.7
18 | COc1ccc(OC)c(/C=C/C(=O)Nc2ccc(OC)cc2OC)c1 | 0.5
19 | O=[N+]([O-])c1ccccc1OCCOCCN1CCOCC1 | 3.2
20 | Cc1ccc(C(C)C)c(OCC(=O)Nc2cccc(-c3nc4ncccc4o3)c2C)c1 | 6.3
21 | C=CCc1cccc2cc(C(=O)Nc3cccc(C(C)=O)c3)c(=O)oc12 | 4.6
22 | CC(=O)N(C(C)=O)c1ccc(-c2ccco2)cc1 | 11
23 | CCc1cccc(C)c1NC(=O)C(CC(C)C)N1C(=O)c2ccccc2C1=O (stereo unspecified) | -2.3
24 | COC(=O)c1ccc(COc2cc(C)cc3oc(=O)cc(-c4ccccc4)c23)cc1 | 9.9

Row | SMILES | displacement [%]
25 | CCCCNC(=O)C(=O)NCCN1CCOCC1 | -9.9
26 | CCOC(=O)COc1c(Cl)cc(/C=C2\C(=O)NC(=O)N(c3ccc(Cl)cc3)C2=O)cc1Cl | -7.8
27 | O=C(/C=C/c1cccc([N+](=O)[O-])c1)c1cccc(Br)c1 | -2.7
28 | CCc1ccc2oc(-c3ccc(NC(=O)c4ccccc4[N+](=O)[O-])cc3)nc2c1 | 11.1
29 | Cc1occc1C(=O)Nc1ccc2c(c1)OCO2 | 1.9
30 | CCOc1ccccc1NC(=O)c1c(NC(=O)c2ccccc2Br)sc2c1CCCC2 | -3.8
31 | CCOC(=O)C1=C(C)N=c2s/c(=C\c3ccc(OCC)cc3)c(=O)n2C1c1ccccc1 (stereo unspecified) | -1
32 | CCc1ccc(-n2[nH]c(C)c(/C=C3/C=Nc4ccccc43)c2=O)cc1 | 15.8
33 | CCOC(=O)N1N=C(c2cccc([N+](=O)[O-])c2)CC1(O)C(F)(F)F (stereo unspecified) | 4.5
34 | CCN(CC)CCn1c2ccccc2n2cc(-c3ccc(OC)c(OC)c3)nc12 | -7.4
35 | O=C(c1cnn2c1NC(c1cccs1)CC2C(F)(F)F)N1CCN(C(c2ccccc2)c2ccccc2)CC1 (stereo unspecified) | 12.9
36 | O=C1N/C(=N\N=C\c2ccc(O)cc2)SC1Cc1ccccc1 (stereo unspecified) | -1.1
37 | CCOc1ccc(NCC(O)CSCC(O)CNc2ccc(OCC)cc2)cc1 (stereo unspecified) | 10.8
38 | S=c1[nH]nc(-c2cc3ccccc3o2)n1-c1ccccc1 | -7.8
39 | O=C(Nc1nnc(COc2ccc(Br)cc2)s1)C1CCCCC1 | -8.5
40 | COc1cc(-c2ccc(NC(=O)c3cccnc3)c(OC)c2)ccc1NC(=O)c1cccnc1 | 1.9
41 | O=C(Nc1ccc(N2CCOCC2)cc1)c1cccc(Cl)c1 | -1.6
42 | COc1cc(/C=C/C(=O)c2ccc(Cl)cc2)cc(OC)c1OC | -73.2
43 | O=C1c2cccc3cccc(c23)C(=O)N1CCN1CCN(CC(O)c2ccc([N+](=O)[O-])cc2)CC1 (stereo unspecified) | -14.9
44 | O=C(NC1CCCCC1)C1COc2ccccc2O1 (stereo unspecified) | -1.9
45 | O=C(c1ccco1)N1CCN(C2CC3CCC2C3)CC1 (stereo unspecified) | -8.7
46 | O=C(Nc1nc(-c2ccc(Cl)cc2)cs1)c1cccc(Cl)c1 | -6.9
47 | COc1ccccc1NCN1C(=O)S/C(=C/c2ccc(C)cc2)C1=O | 6.6
48 | O=C(O)CSCc1cccc([N+](=O)[O-])c1 | 15.9

Row | SMILES | displacement [%]
49 | COC(=O)CSc1nc(N)c(C#N)c(-c2ccc(OC)cc2)c1C#N | -6.6
50 | O=C(NCCCO)C1CC(=O)N(c2ccc(Br)cc2)C1 (stereo unspecified) | -5.9
51 | CCCCCCCNC1CC(=O)N(c2ccc(OCCC)cc2)C1=O (stereo unspecified) | 4
52 | COc1ccccc1NC(=O)c1ccccc1NC(=O)c1ccccc1Cl | 8.2
53 | CN(C)CCSc1nc(O)c(-c2ccccc2)c(=O)n1-c1ccccc1 | -4.1
54 | Cc1cccc(OCC(=O)Nc2cccc(Br)c2)c1C | -8.7
55 | Cc1ccc(-c2nc(N)sc2-c2ccc([N+](=O)[O-])cc2)cc1 | 1
56 | Cc1ccc(/C=C2\SC(N3CCCC3)=NC2=O)cc1 | -1.5
57 | COc1ccc(CC(=O)Nc2sc3c(c2C(=O)Nc2ccccc2OC)CCCCC3)cc1 | 1.4
58 | CC(C)=CC(=O)CC(C)(O)c1ccccc1 (stereo unspecified) | 7.1
59 | CCc1ccc(C(=O)O/N=C(\N)c2ccccn2)cc1 | 12.2
60 | CCCCOC(C)n1cc(C)c(=O)[nH]c1=O (stereo unspecified) | 9.5
61 | NS(=O)(=O)c1ccc(CCNC(=S)Nc2ccccc2)cc1 | -3.3
62 | OC(COCCC12CC3CC(CC(C3)C1)C2)CN1CCSCC1 (stereo unspecified) | -8.1
63 | O=C(CCc1ccccc1)Nc1ccc(Oc2ccccc2)cc1 | -3.4
64 | C=CCn1c(-c2ccccc2)c(NC(=O)c2ccco2)sc1=Nc1ccc(Br)cc1 | 9.2
65 | O=C1N/C(=N/S(=O)(=O)c2ccccc2)S/C1=C/c1ccc(O)cc1 | -17.8
66 | Cc1ccc(-c2nc3ccccc3o2)cc1NC(=O)c1cccc(Br)c1 | 30
67 | CC(=O)Nc1ccc(S(=O)(=O)Nc2cccc3c(NS(=O)(=O)c4ccc(NC(C)=O)cc4)cccc23)cc1 | 1.8
68 | CC1(C)Oc2ccc3ccc(=O)oc3c2/C(=C/N2CCCCC2)C1=O | -13.5
69 | C=C(C)C1CC=C(C)/C(=N/NC(=O)c2cccc(C)c2)C1 (stereo unspecified) | 14.9
70 | Cc1ccccc1C(=O)Nc1ccc(N2CCOCC2)cc1 | 1.6
71 | Cc1cc(C)nc(SCC(=O)Nc2cccc(C(F)(F)F)c2)n1 | -2.1
